Structures are written as SMILES. The list shows a part of the results.

The test system of this test is S. aureus RN4220. Kind of test: growth inhibition call (relative growth <= 0.2). The following applies: 50 µM.
As to `COCC#Cc1ccc2c(c1)O[C@@H](CN(C)C(=O)COC)[C@@H](C)CN([C@H](C)CO)S2(=O)=O`, the growth inhibition call is “inactive”.

In the case of `NCCN1CCO[C@@H](CC(=O)Nc2cc(Cl)cc(Cl)c2)C1=O`, the growth inhibition call is “inactive”.

In the case of `Cc1ccc(S[C@]2(C(=O)NCC(F)(F)F)CC(=O)N(Cc3cc(C(F)(F)F)cc(C(F)(F)F)c3)[C@@H]2c2ccc(CO)cc2I)cc1`, the growth inhibition call was “inactive”.

On to `Cc1ccc(S(=O)(=O)N[C@H]2CC[C@@H](CC(=O)N3CCC(Cc4ccccc4)CC3)O[C@@H]2CO)cc1`, for which the growth inhibition call is “inactive”.

As for `O=C(C[C@H]1C[C@H]2c3cc(NS(=O)(=O)c4ccc(F)cc4)ccc3O[C@H]2[C@H](CO)O1)NC1CCCCC1`, the growth inhibition call was “inactive”.

For the compound `C[C@@H]1CCCCO[C@@H](CN(C)S(=O)(=O)c2ccc(F)cc2)[C@H](C)CN([C@H](C)CO)C(=O)c2cc(NC(=O)Nc3ccc(F)cc3)ccc2O1`, the growth inhibition call was “inactive”.

Take `C[C@H]1CN([C@@H](C)CO)C(=O)Cc2cc(NS(=O)(=O)c3cn(C)cn3)ccc2O[C@@H]1CN(C)Cc1ccccc1`: the growth inhibition call is “inactive”.

For `C[C@@H]1CCCCO[C@@H](CN(C)Cc2ccc(C(F)(F)F)cc2)[C@@H](C)CN([C@@H](C)CO)C(=O)c2cc(N(C)C)ccc2O1`, the growth inhibition call was “inactive”.

As to `C[C@H]1CN([C@@H](C)CO)C(=O)c2cccc(NC(=O)c3nc4ccccc4s3)c2O[C@H]1CN(C)Cc1ccc(Oc2ccccc2)cc1`, the growth inhibition call was “inactive”.

As for `C[C@H]1CN([C@@H](C)CO)C(=O)c2c(c3ccccc3n2C)-c2ccccc2CO[C@@H]1CN(C)CC1CCCCC1`, the growth inhibition call is “inactive”.

Take `C[C@H]1CN([C@@H](C)CO)C(=O)c2cc(NC(=O)C3CC3)ccc2O[C@H]1CN(C)S(=O)(=O)c1ccc(Cl)cc1`: the growth inhibition call was “inactive”.

For the compound `COCCOC(=O)N1C(=O)[C@@]2(c3cc(C#Cc4ccc(OC)cc4)ccc31)[C@H](C(=O)N1CCN(c3ncccn3)CC1)[C@H]1C(=O)O[C@H](c3ccccc3)[C@H](c3ccccc3)N1[C@@H]2c1ccccc1OCCO`, the growth inhibition call was “inactive”.

For `C[C@H]1CCCCO[C@@H](CN(C)C(=O)Nc2ccccc2)[C@@H](C)CN([C@@H](C)CO)C(=O)c2cc(NC(=O)CCC(F)(F)F)ccc2O1`, the growth inhibition call was “inactive”.

For the compound `C[C@H](CO)N1C[C@H](C)[C@H](CN(C)C(=O)Nc2ccc(N3CCN(C)CC3)cc2)OCc2cnnn2CCCC1=O`, the growth inhibition call was “inactive”.

`C[C@H](CO)N1C[C@H](C)[C@@H](CN(C)S(=O)(=O)c2ccc(F)cc2)Oc2ccc(NS(=O)(=O)c3ccc(F)cc3)cc2CC1=O`: the growth inhibition call is “inactive”.

With `COc1ccc2c3c(n(c2c1)C)[C@H](CO)N(C[C@]13CCN(CC1)C(=O)CN(C)C)S(=O)(=O)C`, the growth inhibition call was “inactive”.

For `COc1ccc(S(=O)(=O)Nc2ccc3c(c2)CC(=O)N([C@@H](C)CO)C[C@H](C)[C@H](CN(C)C(=O)NC(C)C)O3)cc1`, the growth inhibition call was “inactive”.

Take `CN1CCN(C(=O)C[C@H]2CC[C@@H](NC(=O)c3ccc4c(c3)OCO4)[C@@H](CO)O2)CC1`: the growth inhibition call is “inactive”.

For `COc1ccc(S(=O)(=O)Nc2ccc3c(c2)CC(=O)N([C@H](C)CO)C[C@@H](C)[C@@H](CN(C)Cc2ccncc2)O3)cc1`, the growth inhibition call is “inactive”.

For `C[C@H](CO)N1C[C@H](C)[C@H](CN(C)Cc2ccc(Oc3ccccc3)cc2)Oc2ccc(NS(=O)(=O)c3ccc(F)cc3)cc2C1=O`, the growth inhibition call was “inactive”.

For `N[C@@H](Cc1ccc(O)c(O)c1)C(=O)O`, the growth inhibition call was “inactive”.

Turning to `O=C1O[C@@H](c2ccccc2)[C@@H](c2ccccc2)N2[C@@H](c3ccccc3OCCO)[C@]3(C(=O)Nc4ccc(C#CC5(O)CCCCCC5)cc43)[C@@H](C(=O)N3CCCCCCC3)[C@H]12`, the growth inhibition call is “inactive”.

On to `C[C@H]1CN([C@@H](C)CO)C(=O)c2cc(NC(=O)CCN3CCOCC3)ccc2O[C@H]1CN(C)S(=O)(=O)c1ccc(F)cc1`, for which the growth inhibition call is “inactive”.

In the case of `C[C@@H]1CN([C@H](C)CO)C(=O)c2cc(C#Cc3ccc(F)cc3)cnc2O[C@@H]1CN(C)Cc1ccccn1`, the growth inhibition call is “inactive”.

With `O=C(C[C@@H]1CC[C@H]2[C@@H](COC[C@@H](O)CN2C(=O)c2cccnc2)O1)NCC1CC1`, the growth inhibition call is “inactive”.

`COc1ccc([Si](C)(C)[C@H]2[C@H](CCO)O[C@@]3(C(=O)N(Cc4cccc(N5C(=O)c6ccccc6Oc6ccccc65)c4)c4ccccc43)[C@@H]2C)cc1`: the growth inhibition call was “inactive”.

On to `Cc1nc(Cn2cnc3c2c(=O)n(C)c(=O)n3C)no1`, for which the growth inhibition call was “inactive”.

Turning to `C[C@H](CO)N1C[C@H](C)[C@H](CN(C)S(C)(=O)=O)Oc2ccc(NS(=O)(=O)c3cn(C)cn3)cc2C1=O`, the growth inhibition call was “inactive”.

As to `C[C@@H]1CN([C@H](C)CO)C(=O)CCCn2cc(nn2)CO[C@H]1CN(C)S(=O)(=O)c1ccc(Oc2ccccc2)nc1`, the growth inhibition call is “inactive”.

On to `C[C@@H]1CN([C@H](C)CO)C(=O)c2cc(NC(=O)c3ccccc3)ccc2O[C@@H](C)CCCCO[C@@H]1CN(C)S(=O)(=O)c1ccc(Cl)cc1`, for which the growth inhibition call was “inactive”.

For the compound `COc1cccc(NC(=O)N(C)C[C@@H]2Oc3ncc(C#Cc4ccncc4)cc3C(=O)N([C@@H](C)CO)C[C@@H]2C)c1`, the growth inhibition call is “inactive”.

With `Cc1c(CN2CCC(Nc3ncnc4sc(CC(F)(F)F)cc34)CC2)ccc2c1cc(C#N)n2Cc1cn[nH]c1`, the growth inhibition call is “inactive”.

As for `O=C1O[C@@H](c2ccccc2)[C@@H](c2ccccc2)N2[C@@H](c3ccc(O)cc3)[C@]3(C(=O)Nc4ccc(C#CC5=CCCCC5)cc43)[C@@H](C(=O)Nc3nc4ccccc4s3)[C@H]12`, the growth inhibition call is “inactive”.

On to `C[C@@H]1CCCCO[C@@H](CN(C)Cc2ccncc2)[C@H](C)CN([C@@H](C)CO)C(=O)c2cc(NC(=O)CCC(F)(F)F)ccc2O1`, for which the growth inhibition call is “inactive”.

For the compound `Cn1cnc(CCNC(=O)C[C@@H]2CC[C@@H]3[C@H](COC[C@H](O)CN3C(=O)Nc3ccc(Cl)cc3)O2)c1`, the growth inhibition call is “inactive”.

For `C[C@@H]1CN([C@H](C)CO)C(=O)Cc2cc(NS(=O)(=O)c3cn(C)cn3)ccc2O[C@H]1CN(C)C(=O)Nc1ccccc1`, the growth inhibition call is “inactive”.

For the compound `COC(=O)CCn1ccc(=O)[nH]c1=O`, the growth inhibition call is “inactive”.

On to `C[C@@H]1CCCCO[C@H](CN(C)Cc2ccc(C(F)(F)F)cc2)[C@H](C)CN([C@H](C)CO)C(=O)c2cc(NC(=O)Nc3ccc(F)cc3)ccc2O1`, for which the growth inhibition call was “inactive”.

As to `COc1ccc(S(=O)(=O)Nc2ccc3c(c2)C(=O)N([C@H](C)CO)C[C@H](C)[C@H](CN(C)C(=O)NC2CCCCC2)OCCCC[C@@H](C)O3)cc1`, the growth inhibition call is “inactive”.

Values taken from the antibiotic and cytotoxicity screens of Wong et al. (2023).
